We go through 172 sequences from article PMC6212790.

Some of the results follow. At the low end of the ranking, values are background and their order means little.

The assay concerns the target T1, GST-Rok (full length) (UniProt O34857).
T1 sequence: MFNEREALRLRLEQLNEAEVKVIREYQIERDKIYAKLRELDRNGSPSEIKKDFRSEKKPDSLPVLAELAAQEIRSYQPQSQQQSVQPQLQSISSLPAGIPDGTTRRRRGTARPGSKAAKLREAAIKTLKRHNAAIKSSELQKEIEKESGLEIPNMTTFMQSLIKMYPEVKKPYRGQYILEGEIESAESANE
Kind of assay: protein binding microarray.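 Further: rank score from −0.5 (least bound) to 0.5 (best bound).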 The conditions noted are these: Rok is a gene silencer of Bacillus subtilis; high values mean tight binding; most listed sequences are background and not binding sites; double strand, one strand shown.
In turn, AATAGGTC gave a binding signal of 0.0929 E-score.

The sequence AACGGAAT had a binding signal of 0.105 E-score.

Consider AAATAGCC, for which the binding signal was 0.046 E-score.

Consider GACCGGGA, for which the binding signal was -0.108 E-score.

In turn, GGTTCTGA displayed a binding signal of -0.0282 E-score.

In turn, GGTTAATA had a binding signal of 0.19 E-score.

CTGCGTGA: the binding signal stood at 0.0471 E-score.

Consider ACCGTCCA, for which the binding signal is -0.0837 E-score.

Take ACGTTGTA: the binding signal turned out to be 0.206 E-score.

AACCTGAG returned a binding signal of -0.0585 E-score.

In the case of CGCGGCGA, the binding signal is -0.233 E-score.

Consider GAACAGTC, for which the binding signal was -0.0967 E-score.

Consider CTCTAAAG, for which the binding signal is -0.164 E-score.

ACACTCAC: the binding signal worked out at 0.0332 E-score.

In turn, ATACCCGG returned a binding signal of -0.0173 E-score.

AGATGAAC returned a binding signal of 0.165 E-score.

In turn, GGATATTA showed a binding signal of 0.161 E-score.

In turn, GAAATACA came in with a binding signal of 0.184 E-score.

In the case of AGGCTGCG, the binding signal is -0.255 E-score.

Regarding GAGCGACC, the binding signal was -0.147 E-score.

With TCTGGGCA, the binding signal was -0.121 E-score.

In turn, GTTAAATA showed a binding signal of 0.312 E-score.

With GGGTGTAA, the binding signal was -0.0569 E-score.

As for AGGAGCCT, the binding signal is -0.345 E-score.

With CCCAAACC, the binding signal is -0.181 E-score.

ACAAACTC showed a binding signal of 0.155 E-score.

In turn, ACTGATTA gave a binding signal of 0.208 E-score.

As to ATGATGTA, the binding signal came out at 0.227 E-score.

CTACGGCC had a binding signal of -0.112 E-score.

In turn, GTCCTCTA showed a binding signal of -0.305 E-score.

As to GCAAGGGC, the binding signal is -0.263 E-score.

In the case of ATGAAATA, the binding signal came to 0.216 E-score.

AGGAGTTC showed a binding signal of -0.0915 E-score.

In turn, ACGCGCTA registered a binding signal of 0.188 E-score.

For ACTTGCGC, the binding signal worked out at 0.13 E-score.

Regarding CGATACCC, the binding signal is -0.231 E-score.

CGACCCAC came in with a binding signal of 0.0766 E-score.

AAGGGGCT: the binding signal was -0.489 E-score.

Sequence AGTGAGAC returned a binding signal of -0.0988 E-score.

GAAAGCGC displayed a binding signal of -0.187 E-score.

ACCCCGAG displayed a binding signal of -0.327 E-score.

For the sequence CCGTAAAC, the binding signal stood at 0.0136 E-score.

ATACCAGA had a binding signal of 0.0105 E-score.

Sequence CTGGGAAG showed a binding signal of -0.169 E-score.

For ATGATACG, the binding signal was determined as 0.0857 E-score.

GCTTGAAA gave a binding signal of 0.0577 E-score.

As for ATAGTAGG, the binding signal amounted to 0.289 E-score.

In turn, CTGTGAAG showed a binding signal of -0.0881 E-score.

In the case of CCGCACGC, the binding signal was -0.251 E-score.

For ATAGCATC, the binding signal was 0.191 E-score.

The sequence CTAACTAA came in with a binding signal of 0.29 E-score.

Sequence ACGGGTAC returned a binding signal of 0.00633 E-score.

In turn, ATGCGTCC registered a binding signal of -0.0272 E-score.

Take ACCCAACG: the binding signal was determined as 0.0103 E-score.

On to ATCCCCAC, for which the binding signal is -0.383 E-score.

ATCTCATG gave a binding signal of 0.183 E-score.

AGAATTAT had a binding signal of 0.245 E-score.

GTCCCAAA: the binding signal was -0.167 E-score.

For the sequence GGACCCAA, the binding signal was -0.313 E-score.

On to GCGTAAGA, for which the binding signal came out at 0.0335 E-score.

With CTTGCGGA, the binding signal was -0.0954 E-score.

GGACTCCA had a binding signal of -0.19 E-score.

Sequence CCGCTCAA displayed a binding signal of -0.185 E-score.

AGAGCCAG showed a binding signal of -0.196 E-score.

Consider GGACTTGA, for which the binding signal was -0.0412 E-score.

As for GATACATC, the binding signal amounted to 0.186 E-score.

Sequence GAACGATA displayed a binding signal of 0.236 E-score.

Sequence GCTCCGCA showed a binding signal of -0.2 E-score.

With ACACAGCT, the binding signal was -0.0133 E-score.

CCGGTTCA came in with a binding signal of -0.174 E-score.

In turn, CCTAGTGC yielded a binding signal of -0.0964 E-score.

AGTACGAG had a binding signal of 0.0692 E-score.

Regarding CCTAGAGC, the binding signal was -0.0531 E-score.

Turning to ATCGCGAT, the binding signal is 0.287 E-score.

Turning to CACGATCC, the binding signal is -0.0502 E-score.

CGCATGGC yielded a binding signal of -0.286 E-score.

The sequence GGTCTAGA yielded a binding signal of -0.0272 E-score.

CAACACGG: the binding signal was determined as 0.0643 E-score.

The sequence GGGCCTCA showed a binding signal of -0.215 E-score.

Turning to ATTTAAGA, the binding signal is -0.00721 E-score.

In turn, AGATCATA returned a binding signal of 0.165 E-score.

Turning to ATGTCTGG, the binding signal is -0.215 E-score.

In the case of CGCCCTCA, the binding signal is -0.342 E-score.

Consider AACAACAT, for which the binding signal amounted to 0.0889 E-score.

Consider AATTACTA, for which the binding signal was determined as 0.434 E-score.

For the sequence CCCTCGGC, the binding signal was -0.336 E-score.

Sequence GATTGAGA returned a binding signal of -0.0925 E-score.

Turning to GAGAGGGC, the binding signal was -0.42 E-score.

Sequence CTGTTTGC showed a binding signal of -0.272 E-score.

ACGTTCGC came in with a binding signal of -0.0889 E-score.

Consider ATAAGAAT, for which the binding signal amounted to 0.244 E-score.

GTCAACGA: the binding signal was -0.0371 E-score.

Sequence CGTACGCC gave a binding signal of 0.0878 E-score.

ACGCGCAT: the binding signal was -0.0825 E-score.

With CGCCTCTA, the binding signal was -0.131 E-score.

The sequence AAGGTGTG registered a binding signal of -0.104 E-score.

Consider CGGCATCC, for which the binding signal is -0.302 E-score.

Sequence AGACCTTC showed a binding signal of -0.169 E-score.

With GGTTTGAC, the binding signal was -0.136 E-score.

As for AGAACCTC, the binding signal is -0.138 E-score.

In turn, AAGTTGAC showed a binding signal of 0.0694 E-score.

With CGGAAAAA, the binding signal is -0.052 E-score.

In turn, GGTGCGAC returned a binding signal of -0.248 E-score.

As to CCCGGCCC, the binding signal is -0.387 E-score.

For the sequence GGCTCATA, the binding signal is -0.336 E-score.

AGTTGTGC returned a binding signal of 0.157 E-score.

Turning to GGCGCTTA, the binding signal was -0.109 E-score.

In turn, GGCATCTA gave a binding signal of -0.0204 E-score.

On to TACGCACA, for which the binding signal came to 0.21 E-score.

AGTAACAC yielded a binding signal of 0.281 E-score.

Regarding CTTTTACA, the binding signal was 0.0852 E-score.

TCAACTCA came in with a binding signal of -0.0186 E-score.

Sequence AAGTAGCC returned a binding signal of 0.14 E-score.

CAGTCACG returned a binding signal of -0.0672 E-score.

The sequence CAATGCGC came in with a binding signal of 0.0244 E-score.

In turn, GTTAAAAA gave a binding signal of 0.127 E-score.

Take CTGCTGCA: the binding signal was 0.019 E-score.

Regarding AGCCAAAA, the binding signal is 0.0252 E-score.

For CCACCCTC, the binding signal is -0.266 E-score.

AATACTAG: the binding signal is 0.341 E-score.

In turn, AGCCGATC gave a binding signal of -0.154 E-score.

AGAAAGGC yielded a binding signal of -0.0301 E-score.

GCTGCCCA displayed a binding signal of 0.0246 E-score.

The sequence ATTAGGTC registered a binding signal of 0.0813 E-score.

Turning to TATACCGA, the binding signal is 0.215 E-score.

ATCAGAAA had a binding signal of 0.0773 E-score.

On to CATGGCAA, for which the binding signal is -0.0187 E-score.

The sequence ACGAGTCC showed a binding signal of -0.192 E-score.

Regarding AGGGCGGC, the binding signal is -0.355 E-score.

As for TACGGGAA, the binding signal is 0.124 E-score.

AGAGTGGA came in with a binding signal of -0.109 E-score.

Take GGACTGAC: the binding signal is -0.299 E-score.

As for CGGTATTC, the binding signal turned out to be 0.245 E-score.

In turn, CCGTGCCC gave a binding signal of -0.325 E-score.

As to CATCGCAG, the binding signal is -0.277 E-score.

In turn, GCCCTTGA registered a binding signal of -0.391 E-score.

Take CACGACTG: the binding signal was -0.0627 E-score.

AACCAGCA displayed a binding signal of -0.00149 E-score.

As for TACGGTAA, the binding signal amounted to 0.315 E-score.

CAACCTCA: the binding signal worked out at 0.0127 E-score.

Regarding GATGGGGA, the binding signal was -0.176 E-score.

In the case of CGTACCCA, the binding signal is -0.00953 E-score.

Sequence CGCTGTCA yielded a binding signal of -0.125 E-score.

For AATATACC, the binding signal came out at 0.394 E-score.

Sequence GTAAACTA had a binding signal of 0.351 E-score.

Turning to ACTCGTCG, the binding signal is -0.043 E-score.

CTTCATCC registered a binding signal of -0.154 E-score.

As to ATTCGTAC, the binding signal was determined as 0.135 E-score.

Sequence CGCCGGAA gave a binding signal of -0.0419 E-score.

CTGATAAA came in with a binding signal of 0.0763 E-score.

Sequence AATTTAGT displayed a binding signal of 0.163 E-score.

CAGGCATA: the binding signal stood at 0.0553 E-score.

Take GCGATCCC: the binding signal was -0.257 E-score.

Regarding AACTGTGG, the binding signal is -0.041 E-score.

The sequence TGCGGGAA showed a binding signal of -0.19 E-score.

Sequence TCGAAGCA gave a binding signal of -0.0477 E-score.

Regarding CACGAGGC, the binding signal was -0.2 E-score.

Sequence AACGGTAG gave a binding signal of 0.276 E-score.

AGGAATCC gave a binding signal of -0.168 E-score.

On to AGGTTGGC, for which the binding signal is -0.0479 E-score.

In turn, AGCACTAG displayed a binding signal of 0.0456 E-score.

Take GGATCCTA: the binding signal was found to be 0.0769 E-score.

With AGACCCCG, the binding signal is -0.383 E-score.

For TTGGCAAA, the binding signal is -0.0481 E-score.

AGTCAGCC returned a binding signal of -0.00495 E-score.

As to ATTCCTAC, the binding signal came out at 0.201 E-score.

Sequence CGTATATA displayed a binding signal of 0.28 E-score.

In turn, AAAGGTGG showed a binding signal of -0.19 E-score.

As to AAACCTCG, the binding signal was -0.0155 E-score.

As to GCGCGGTA, the binding signal turned out to be 0.073 E-score.

CATTAACC displayed a binding signal of 0.0213 E-score.

AACCAAGC returned a binding signal of 0.104 E-score.
